Binding data for four substances are collected here from PMC9636508.

Protein sequences, listed by entry. Tags and fused reporters are not part of them. Lines headed by an entry give the natural chain unless they say otherwise; changes in a name come on top. Residues count along the entry.
UniProt Q9UNF0: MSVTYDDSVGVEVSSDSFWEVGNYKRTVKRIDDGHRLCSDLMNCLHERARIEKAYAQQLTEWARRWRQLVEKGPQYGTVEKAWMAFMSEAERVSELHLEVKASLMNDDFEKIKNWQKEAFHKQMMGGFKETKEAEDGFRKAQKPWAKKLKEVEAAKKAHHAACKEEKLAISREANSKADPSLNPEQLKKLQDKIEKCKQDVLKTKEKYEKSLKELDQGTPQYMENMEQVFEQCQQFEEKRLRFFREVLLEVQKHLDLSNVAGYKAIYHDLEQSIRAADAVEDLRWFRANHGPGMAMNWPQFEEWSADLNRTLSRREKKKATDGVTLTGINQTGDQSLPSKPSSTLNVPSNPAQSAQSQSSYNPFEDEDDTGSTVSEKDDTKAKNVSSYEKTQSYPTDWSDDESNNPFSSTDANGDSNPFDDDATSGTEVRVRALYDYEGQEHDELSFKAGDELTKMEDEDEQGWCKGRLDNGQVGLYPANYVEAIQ
PACSIN2 SH3 domain (residues 430-486), purified: residues 430-486 of Q9UNF0
UniProt Q53SF7: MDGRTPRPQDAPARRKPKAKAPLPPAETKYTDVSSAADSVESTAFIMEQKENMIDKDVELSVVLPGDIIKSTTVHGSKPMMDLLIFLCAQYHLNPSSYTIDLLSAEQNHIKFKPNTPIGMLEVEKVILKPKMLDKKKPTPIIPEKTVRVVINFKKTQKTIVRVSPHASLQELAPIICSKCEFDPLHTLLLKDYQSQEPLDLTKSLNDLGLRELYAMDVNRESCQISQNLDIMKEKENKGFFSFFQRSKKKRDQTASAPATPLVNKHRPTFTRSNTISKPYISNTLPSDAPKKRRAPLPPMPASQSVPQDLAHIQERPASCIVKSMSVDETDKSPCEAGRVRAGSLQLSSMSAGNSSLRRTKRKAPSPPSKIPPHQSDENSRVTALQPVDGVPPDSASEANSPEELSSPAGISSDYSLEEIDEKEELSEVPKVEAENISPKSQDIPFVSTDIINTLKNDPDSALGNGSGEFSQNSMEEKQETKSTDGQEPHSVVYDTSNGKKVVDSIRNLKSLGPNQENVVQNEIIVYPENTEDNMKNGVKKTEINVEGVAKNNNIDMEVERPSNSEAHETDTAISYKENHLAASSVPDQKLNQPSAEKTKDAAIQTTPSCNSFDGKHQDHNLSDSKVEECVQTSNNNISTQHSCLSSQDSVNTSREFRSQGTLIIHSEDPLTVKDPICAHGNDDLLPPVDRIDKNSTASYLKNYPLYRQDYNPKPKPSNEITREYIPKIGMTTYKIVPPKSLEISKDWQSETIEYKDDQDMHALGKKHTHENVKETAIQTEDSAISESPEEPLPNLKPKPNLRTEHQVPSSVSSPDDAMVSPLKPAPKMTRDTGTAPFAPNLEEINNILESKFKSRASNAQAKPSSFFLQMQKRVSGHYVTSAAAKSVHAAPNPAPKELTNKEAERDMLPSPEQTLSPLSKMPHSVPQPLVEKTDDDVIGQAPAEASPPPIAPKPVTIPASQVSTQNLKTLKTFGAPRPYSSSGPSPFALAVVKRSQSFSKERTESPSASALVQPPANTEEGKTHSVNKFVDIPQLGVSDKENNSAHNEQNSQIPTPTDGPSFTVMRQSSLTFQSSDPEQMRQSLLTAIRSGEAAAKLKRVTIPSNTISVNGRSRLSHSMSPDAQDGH

Experiment [1] concerns the target PACSIN2 (endogenous) (human (endogenous in K562)) (UniProt Q9UNF0). Description: co-IP; endogenous proteins; K562 cells.
Experiment [2] concerns the target PACSIN2 wild type, overexpressed (human) (UniProt Q9UNF0). Description: co-IP; K562 cells transfected with expression plasmids, lysed after 24 h in NETN buffer (150 mM NaCl, 0.5 mM EDTA, 50 mM Tris pH 7.5, 0.5% NP-40); streptavidin-coated beads or protein A-agarose with primary antibody; western blot. A general note: Immunoblotting shows a protein as a band on a membrane.

For experiment [3], the target named is GST-SH3 (GST-fused SH3 domain of PACSIN2) (human) (UniProt Q9UNF0). Description: pull-down; GST pull-down with the GST-fused SH3 domain of PACSIN2; methods not shown.
Experiment [4] addresses PACSIN2 SH3 domain (residues 430-486), purified (human) (UniProt Q9UNF0). Briefly: NMR titration; 1H-15N HSQC, 298 K; unlabelled Cobll1-NT and SH3BP1-CT added to 50 uM 15N-labelled PACSIN2 SH3 domain (1:0:0, 1:0:1, 1:1:0, 1:1:1; replacement titration); 50 mM sodium phosphate, 100 mM NaCl, 1 mM TCEP, pH 6.3; both purified.
The target of experiment [5] is T1, SH3BP1 wild type, overexpressed (UniProt Q9Y3L3).
T1 sequence: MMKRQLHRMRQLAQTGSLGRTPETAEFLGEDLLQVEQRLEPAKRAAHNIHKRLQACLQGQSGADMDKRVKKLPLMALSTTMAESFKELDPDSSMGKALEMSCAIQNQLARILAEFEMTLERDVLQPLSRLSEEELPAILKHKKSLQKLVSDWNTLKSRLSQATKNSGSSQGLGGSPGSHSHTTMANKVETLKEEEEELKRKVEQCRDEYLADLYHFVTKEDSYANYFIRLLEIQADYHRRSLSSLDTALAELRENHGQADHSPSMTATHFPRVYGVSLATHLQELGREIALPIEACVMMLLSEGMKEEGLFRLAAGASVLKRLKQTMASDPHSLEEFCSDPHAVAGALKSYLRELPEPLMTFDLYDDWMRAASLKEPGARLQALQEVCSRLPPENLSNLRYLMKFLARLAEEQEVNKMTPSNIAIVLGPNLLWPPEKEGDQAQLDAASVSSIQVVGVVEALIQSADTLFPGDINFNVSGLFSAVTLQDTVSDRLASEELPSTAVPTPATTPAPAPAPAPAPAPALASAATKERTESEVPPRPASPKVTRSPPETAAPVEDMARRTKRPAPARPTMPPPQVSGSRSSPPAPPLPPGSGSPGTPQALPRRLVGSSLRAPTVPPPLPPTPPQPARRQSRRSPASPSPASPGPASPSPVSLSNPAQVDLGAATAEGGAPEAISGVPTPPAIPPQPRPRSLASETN
Briefly: co-IP; K562 cells transfected with expression plasmids, lysed after 24 h in NETN buffer (150 mM NaCl, 0.5 mM EDTA, 50 mM Tris pH 7.5, 0.5% NP-40); streptavidin-coated beads or protein A-agarose with primary antibody; western blot.

No constants are given. Whether binding was seen depends on the method and setting. For some assays here: Binding seen in cells or lysates may run through a third protein. Some binding calls cover weakened binding; strength is not graded here.

Turning to “Cobll1 (endogenous) (from UniProt Q53SF7 1-1128)”, in experiment [1], the binding entry is “binds”. Regarding “Cobll1 wild type, overexpressed (from UniProt Q53SF7 1-1128)”, the binding entry in experiment [2] and in experiment [3] was “binds” throughout. Turning to “Cobll1-NT (N-terminal region of Cobll1, residues 175-370) (from UniProt Q53SF7 175-370) (domain or fragment)”, the binding entry in experiment [4] is “binds”.

Consider “PACSIN2 wild type, overexpressed (from UniProt Q9UNF0 1-486)”, for which the binding entry in experiment [5] is recorded as “binds”.
